Test results as given in PMC6744581.
No constants are given. Whether binding was seen depends on the method and setting. Binding seen in cells or lysates may run through a third protein. Some binding calls cover weakened binding; strength is not graded here. Tags and fused reporters may be left off the sequences shown.

T1: myc-RhoBTB1 (human) (UniProt O94844)
T1 sequence: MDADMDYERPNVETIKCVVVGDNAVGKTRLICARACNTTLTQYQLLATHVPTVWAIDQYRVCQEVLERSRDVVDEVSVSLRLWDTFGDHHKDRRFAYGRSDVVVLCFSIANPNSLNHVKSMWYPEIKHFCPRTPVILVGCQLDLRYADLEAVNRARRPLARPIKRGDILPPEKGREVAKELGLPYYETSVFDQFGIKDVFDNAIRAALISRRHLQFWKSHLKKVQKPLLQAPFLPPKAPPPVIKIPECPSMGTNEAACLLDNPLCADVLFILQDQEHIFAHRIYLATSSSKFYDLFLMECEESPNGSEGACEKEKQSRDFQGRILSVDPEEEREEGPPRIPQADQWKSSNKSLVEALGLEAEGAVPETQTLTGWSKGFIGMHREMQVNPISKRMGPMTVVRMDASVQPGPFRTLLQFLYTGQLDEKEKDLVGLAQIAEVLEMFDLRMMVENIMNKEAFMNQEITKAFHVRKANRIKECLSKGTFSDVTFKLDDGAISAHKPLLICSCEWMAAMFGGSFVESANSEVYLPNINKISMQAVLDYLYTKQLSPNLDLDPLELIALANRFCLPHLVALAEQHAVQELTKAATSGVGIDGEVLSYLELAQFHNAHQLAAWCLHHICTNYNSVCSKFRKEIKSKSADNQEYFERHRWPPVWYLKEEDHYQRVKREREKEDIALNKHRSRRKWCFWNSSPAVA

T2: GFP-RhoBTB1 (human) (UniProt O94844)
T2 sequence: T1 sequence

B1: GFP-RhoBTB1 (protein, UniProt O94844 1-696)
chain: T1 sequence
B2: myc-ROCK2^1–436 (domain or fragment, UniProt Q28021 1-436)
chain: MSRPPPTGKMPGAPEAVSGDGAGASRQRKLEALIRDPRSPINVESLLDGLNPLVLDLDFPALRKNKNIDNFLNRYEKIVKKIRGLQMKAEDYDVVKVIGRGAFGEVQLVRHKASQKVYAMKLLSKFEMIKRSDSAFFWEERDIMAFANSPWVVQLFCAFQDDKYLYMVMEYMPGGDLVNLMSNYDVPEKWAKFYTAEVVLALDAIHSMGLIHRDVKPDNMLLDKHGHLKLADFGTCMKMDETGMVHCDTAVGTPDYISPEVLKSQGGDGYYGRECDWWSVGVFLFEMLVGDTPFYADSLVGTYSKIMDHKNSLCFPEDAEISKHAKNLICAFLTDREVRLGRNGVEEIKQHPFFKNDQWNWDNIRETAAPVVPELSSDIDSSNFDDIEDDKGDVETFPIPKAFVGNQLPFIGFTYYRENLLLSDSPSCKENDSIQS

Columns and labels:
myc-RhoBTB1 (human) = target: T1, myc-RhoBTB1 (human); assay: co-IP; COS7 cells co-transfected with myc-RhoBTB1 and GFP-RhoBTB1, lysed after 24 h; anti-myc-agarose beads; blots for myc and GFP
GFP-RhoBTB1 (human) = target: T2, GFP-RhoBTB1 (human); assay: co-IP; COS7 cells co-transfected, lysed after 24 h in IP lysis buffer (1% Triton X-100, 20 mM Tris pH 8, 130 mM NaCl, 1 mM DTT); GFP fusion held on GFP-trap beads; blots for myc or HA and GFP

Row | Binder | binding (myc-RhoBTB1 (human)) | binding (GFP-RhoBTB1 (human))
1 | B1 | binds | –
2 | B2 | – | binds
